# About 2,400 (1.1%) of roughly 220,000 compounds were called active. Another 7% or so got no clear call; they are omitted. Calls follow the shape of the dose curve; as a rule, active = well fitted inhibition curve with a large enough effect; inconclusive = small, poorly fitted or top-dose-only effect, or effect the other way; inactive = no such curve, though single readings can be large or run the other way. The list shows a part of the results, in another mix than the full data. Some structures have more than one record in an assay (separate samples or runs), and their calls can disagree.
# Test: qHTS Multiplex Assay to Identify Dual Action Probes in a Cell Model of Huntington: Aggregate Formation (GFP); also: nearly all actives have a fitted effect of over 60% in size
# Details: PC12 HttQ103-GFP aggregates, Acumen cytometry, 40 h; series mostly up to 46.1 µM; activity change, negative = inhibition: at the top concentration
# Excerpt: NIH Chemical Genomics Center [NCGC]
# NIH Molecular Libraries Probe Production centers Network [MLPCN]
# Assay Submitter (PI): Wei Zheng
# Huntington's disease is a neurodegenerative disorder caused by a trinucleotide repeat expansion in Exon 1 of the Huntingtin gene. The CAG trinucleotide encodes glutamine and polyglutamine expansions cause cell death in selective areas of the brain. Huntington polyglutamine repeats have the tendency to form aggregates which are observable in later stages of the disease. The exact nature of the aggregates, whether toxic, protective, or insignificant, is unclear.
# A stable PC12 cell line containing a gene fusion of Exon 1 of the Huntingtin gene linked to GFP under the control of the inducible ecdysone promoter were used as the cell-based model of Huntington Disease for high throughput screening. Exon 1 of the Huntingtin gene contained an expansion of 103 polyglutamines (Q103) which, when expressed, caused cell death and distinct, bright GFP aggregates. The amount of cell death and the size and intensity of GFP aggregates increased over time and induction level. The cell death were quantified with a measurement of ATP content in the cells. A maximal 40-50% of cell death was observed when the Huntington gene was induced in this cell line.
# We optimized this assay in a homogeneous 1536 well format. A quantitative high throughput screen (qHTS) was conducted on the PC12 cells which were induced to express the toxic fusion construct. Small molecules which reduced aggregate formation were identified bu using a laser scanning cytometer calibrated to detect the aggregates in cell lysates.
# PC12 cells stably containing a construct with an ecdysone inducible promoter expressing GFP fused to the exon 1 of HTTQ103 (Huntington protein which containing a 103 ployglutamine expansion) were used.
# NCGC Assay Protocol Summary:
# Sequence, Parameter, Description
# 1, Reagent, 5 uL 1500 cells/well 1536 TC treated White clear bottom plate
# 2, Compound, 23 nL Tebufenozide inducer (100 nM final) to all columns
# 3, Compound, 23 nL 40 uM to 0.5 nM Libraries
# 5, Reagent, 5 ul ATPLite cell death assay reagent
# 6, Detector, Aggregate quantitation by Acumen Explorer
# Media consisted of phenol red free DMEM + 5% equine serum (Hyclone # SH30072.03 ), 5% supplemented Bovine Calf Serum (Hyclone # SH30074.03 ), 1x pen/strep, no G418
# Acumen Explorer was used to quantitate GFP aggregates using the following criteria: […] laser excitation, 500-530 nm emission, the PMT was set at a voltage of 450 volts, and objects ranging in size of […] in size having a signal of 6 STDEV above background were collected.
# Control columns: 1 = DMSO, 2= 2 uM teb dilns (1:1), 4 = 100 nM Teb inducer. Sample columns received 100 nM Teb.
# % is scaled to controls: 0 for no effect and ±100 for the full control effect; potency is read from the fitted curve at half-maximal effect.
SMILES,"activity change, negative = inhibition",Potency
COC(C[C@H]1O[C@H]1[C@@H](O)[C@@H](C)OCc1ccccc1)OC,inactive: 23.4% [at 9.22 µM],–
O=C(NN1C(=O)C2C3c4ccccc4C(c4ccccc43)C2C1=O)c1ccccc1 (configuration not stated),inactive: -3.34%,–
COc1ccccc1NS(=O)(=O)c1cc(NC(=O)c2ccc(Cl)nc2)ccc1Cl,–,active: 25.1 µM
CC(=O)N=c1sc(S(N)(=O)=O)nn1C,inactive: 4.56% [at 20.6 µM],–
CCC(=O)N1c2ccccc2C(N(C(C)=O)c2ccccc2)CC1C (configuration not stated),inactive: 5.68%,–
COc1ccccc1/C=C/C=N/n1c(-c2ccc(Cl)cc2Cl)n[nH]c1=S,inactive: -5.96% [at 9.22 µM],–
C[C@@H](C(=O)Nc1ccc2ccccc2c1)[C@@H]1C[C@@]1(C)[C@@H](NC(=O)c1cccnc1)c1ccccc1,inactive: -0.698%,–
Clc1ccc(CSc2nnc(-c3ccncc3)o2)cc1,–,active: 10 µM
CCOC(=O)C1=C(c2cccc(Oc3ccccc3)c2)NC(=S)NC1C (configuration not stated),–,active: 11.2 µM
Cn1c2c(c(=O)n(C)c1=O)C1(C(=O)Nc3ccccc31)C(C#N)=C(N)O2 (configuration not stated),inactive: -1.49%,–
O=C(O)/C=C\C(=O)NC1CCCCC1,inactive: -2.44%,–
Cc1ccc(O)c(C(=O)c2cnn(C(=O)Cc3csc(C)n3)c2)c1,–,active: 22.4 µM
CCCCc1oc2ccccc2c1C(=O)c1cc(I)c(OCCN(CC)CC)c(I)c1,inactive: 4.39%,–
CCCC1=NN(c2ccc([N+](=O)[O-])cc2)C(=O)/C1=C\N(C)C,inactive: -5.96%,–
Cc1ccc(C(O)(C(=O)NNc2ccc3ccccc3n2)c2ccc(C)cc2)cc1,inactive: -3.63%,–
O=C(O)/C(=C\c1ccco1)NC(=O)c1ccccc1,inactive: 16.8%,–
COC(C[C@H]1O[C@@H]1[C@@H](O)[C@H](C)OCc1ccccc1)OC,inactive: 8.98% [at 9.22 µM],–
Cc1ccc(C2=N/C(=C/c3cccs3)C(=O)N2Nc2ccccc2)cc1,inactive: 12.3%,–
Cc1ccc(C(NC(=O)C(C)C)c2cc([N+](=O)[O-])c3cccnc3c2O)cc1 (configuration not stated),–,active: 20 µM

SMILES,"activity change, negative = inhibition",Potency
COC1=CC(=O)C[C@@H](C)[C@]12Oc1c(Cl)c(OC)cc(OC)c1C2=O,inactive: -2.14%,–
Cc1cc(C(=O)N[C@@H](c2ccccc2)[C@]2(C)C[C@H]2[C@@H](C)C(=O)Nc2ccc3ccccc3c2)no1,inactive: -15.7%,–
CCC1=C[C@@H]2CN(C1)Cc1c([nH]c3ccccc13)[C@@](C(=O)OC)(c1cc3c(cc1OC)N(C)[C@@H]1[C@@](O)(C(=O)OC)[C@H](OC(C)=O)[C@]4(CC)C=CCN5CC[C@]31[C@@H]54)C2,–,active: 5.62 µM
COc1ccc([C@@H]2Sc3ccccc3N(CCN(C)C)C(=O)[C@@H]2OC(C)=O)cc1,inactive: 15.2%,–
CCOc1ccc(N(CC(=O)Nc2ccc(C)c(C)c2)S(=O)(=O)c2c(C)noc2C)cc1,–,active: 20 µM
O=C(N/N=C/C(Cl)=C\c1ccccc1)c1cnccn1,inactive: 6.31%,–
CC(=O)Nc1ccc(NC(=O)[C@@H]2CCCC[C@@H]2C(=O)O)cc1,inactive: 9.65%,–
NS(=O)(=O)c1cc2c(cc1Cl)NC(C(Cl)Cl)NS2(=O)=O (configuration not stated),inactive: 14.2%,–
O=C(Nc1ccc(N2CCCCC2)c(Cl)c1)c1ccc(N2CCOCC2)c([N+](=O)[O-])c1,–,active: 11.2 µM
CN(C)[C@@H]1C(=O)C(C(N)=O)=C(O)[C@]2(O)C(=O)C3=C(O)c4c(O)ccc(Cl)c4[C@H](O)[C@H]3C[C@@H]12,inactive: -14.2%,–
c1ccc(N2CCN(c3ncnc4sc5c(c34)CCC5)CC2)cc1,–,active: 11.2 µM
CCN(CC)c1ccc2cc(-c3nnc(-c4ccccc4)o3)c(=O)oc2c1,–,active: 7.08 µM
C1CCC(C(CC2CCCCN2)C2CCCCC2)CC1 (configuration not stated),–,active: 25.1 µM
CN1CCN(CCCN2c3ccccc3Sc3ccc(C(F)(F)F)cc32)CC1,inactive: -39.7%,–
CCCCCCCCCCCCCCC[C@H](O)[C@H](N)CO,inactive: -0.249%,–
O=C(CSc1nc2ccccc2[nH]1)N/N=C/C=C\c1ccccc1[N+](=O)[O-],inactive: -8.04%,–
O=C(NCc1cccnc1)/C(=C\c1ccc(-c2cccc(Cl)c2)o1)S(=O)(=O)c1ccccc1,inactive: -7.67% [at 9.22 µM],–
C[C@@H](C(=O)NCc1ccccc1)[C@@H]1C[C@@]1(C)[C@@H](NC(=O)OCc1ccccc1)c1ccccc1,inactive: -7.96%,–
Nc1nc(Cl)nc2c1ncn2[C@H]1C[C@H](O)[C@@H](CO)O1,inactive: -39.6%,–

SMILES,"activity change, negative = inhibition",Potency
Cn1c(=O)c2c(nc(Oc3ccccc3)n2C)n(C)c1=O,inactive: -38.4% [at 9.22 µM],–
Cc1ccc(C(=O)NN2C(=O)C3C4c5ccccc5C(c5ccccc54)[C@@H]3C2=O)cc1 (some centres not stated),inactive: 30.9%,–
OC(C#Cc1ccccn1)c1cccs1 (configuration not stated),–,active: 5.01 µM
O=C1C2C(C(=O)N1CCN1CCN(Cc3ccc([N+](=O)[O-])cc3)CC1)[C@H]1C=C[C@@H]2C1 (some centres not stated),inactive: 16.1% [at 9.22 µM],–
CSc1ccc2c(c1)C(N1CCN(C)CC1)Cc1ccccc1S2 (configuration not stated),inactive: -21.2% [at 9.22 µM],–
C/C(=N\NC(=O)CNC(=O)C(c1ccccc1)c1ccccc1)c1ccc(C)cc1,–,active: 12.6 µM
O=C1c2ccccc2C(=O)C12OC2c1ccc(Cl)cc1 (configuration not stated),–,active: 31.6 µM
O=C1NCCc2c1[nH]c1ccccc21,inactive: 2.65%,–
N#C/C(=C/C=C/c1ccccc1)C(=O)Nc1ccccc1,inactive: -24.7%,–
CCOCCCNc1ncnc2c1[nH]c1ccccc12,–,active: 10 µM
COC(=O)/C=C/S(=O)(=O)c1ccc(NC(C)=O)cc1,–,active: 10 µM
Nc1ncnc2c1ncn2[C@@H]1O[C@H](CO)[C@@H](O)[C@H]1O,–,inactive
O=C(NCc1nc2ccccc2[nH]1)C1=C[C@@H](C2CC2)C[C@@H](OCc2ccc(CO)cc2)O1,inactive: 3.86% [at 9.22 µM],–
CNCCCC12CCC(c3ccccc31)c1ccccc12,–,inactive
CC(=O)C1=C(C)N(Cc2ccccc2)C(=O)N[C@@H]1c1cccc(C(F)(F)F)c1,inactive: -0.763%,–
O=C(Cc1ccc(Cl)cc1)Nc1ccc(N2CCN(C(=O)c3ccco3)CC2)c(Cl)c1,–,active: 10 µM
CC(Cc1ccccc1)N/C=C1\CC(=O)NC1=O (configuration not stated),inactive: 20.9%,–
CC1=CC(C)=Nc2ccc(C)cc2N1,inactive: 0.918%,–
CCCN1C(=O)S/C(=C/c2ccc(N3CCOCC3)o2)C1=O,inactive: 6.69% [at 9.22 µM],–

# Source: PubChem BioAssay AID1688 (National Center for Advancing Translational Sciences (NCATS), 2009)
